# Laboratory results as given in PubChem BioAssay AID1814 (Broad Institute, 2009).
# Hit rate of the full screen: of about 300,000 compounds, about 22,000 (7.3%) were called active. This list was built around the results that the source calls inconclusive (neither active nor inactive); the mix of calls is not that of the screen. Rule as the data show it: active = activity score below about -60%; inconclusive = mostly about -28% to -61%; inactive = positive scores.
# Test: Activators via SNCA 5'UTR binding, MLPCN (AID 1814)
# Conditions: alpha-synuclein 5'UTR reporter, activators screen; stronger effect = lower value; tested at 7.5 µM
row,SMILES,activity score
1,Cc1ccc(N(C(=O)c2csnn2)C(C(=O)NC(C)(C)C)c2ccccn2)cc1 (configuration not stated),inconclusive: -39.2%
2,O=C(Nc1nccs1)c1ccc(-c2ccc(Cl)cc2Cl)o1,active: -149%
3,Cc1ccn2c(c1)nc(=S)n2C(=O)c1ccco1,active: -202%
4,COc1ccc(-c2cc(CCCC(=O)NCCc3ccccc3)no2)cc1,inconclusive: -51.7%
5,COc1ccccc1NC(=O)Nc1ccncc1,inconclusive: -50.7%
6,O=C(Nc1nccs1)c1csc2c1CCCC2,active: -129%
7,COc1cc(/C=N/NC(=O)COc2ccc(Cl)cc2)ccc1OS(=O)(=O)c1ccc(C)cc1,inconclusive: -45.5%
8,Cc1ccc(S(=O)(=O)Nc2ccc(Cl)cc2)cc1NC(=O)c1cc2c(s1)CCCC2,inconclusive: -48.9%
9,COC(=O)c1ccc2c(c1)SC1=C(CCCC1=O)N2,inconclusive: -45.7%
10,Cc1noc(C(=O)Nc2ccc(F)c(Cl)c2)c1Cl,active: -70.4%
11,Cc1cc2nc(N)sc2cc1[N+](=O)[O-],inconclusive: -42.4%
12,Cc1ccc(NC(=S)N=Nc2c(O)n(C)c3ccc(S(=O)(=O)N4CCOCC4)cc23)cc1,inactive: 75.5%
13,COc1cc2c(cc1NC(=O)CSc1ccccn1)oc1ccccc12,active: -281%
14,COc1nc(Nc2ccc(OC)c(Cl)c2)nc(OC)n1,inconclusive: -52.2%
15,CN1CCN(/N=C/c2nc(-c3ccccc3Cl)n3ccccc23)CC1,inconclusive: -58.3%
16,O=C(/C=C/c1ccc2c(c1)OCO2)NCC1CCCO1 (configuration not stated),inconclusive: -51.9%
17,CC(C)CCn1c(O)c(N=Nc2ccccn2)c2ccccc21,inconclusive: -60.5%
18,COc1ccc(/C=C2/SC(=S)N(CCCC(=O)Nc3ccc(O)cc3)C2=O)cc1,inactive: 68%
19,CC(/C=C/c1ccccc1)=N/O,inconclusive: -54.5%
20,CSc1nc(/C=C2\C=Nc3ccccc32)c(O)n1C,active: -152%
21,Cc1ccc(-c2nnn(CCC(=O)N3CCCCC3C)n2)cc1 (configuration not stated),inconclusive: -36%
22,O=C(N/N=C\c1ccc([N+](=O)[O-])o1)C1COc2ccccc2O1 (configuration not stated),inconclusive: -53.8%
23,Cc1cc(C(=O)N/N=C/c2c[nH]c3ccccc23)c(C)o1,active: -81%
24,CC(=O)Nc1ccc(Nc2nc(-c3cc4ccccc4oc3=O)cs2)cc1,active: -449%
25,CN1CCN(C(=O)c2cnn3c2NC(c2ccccc2)CC3C(F)(F)F)CC1 (configuration not stated),inconclusive: -42.4%
26,CC(/C=C/c1ccccc1)=N\NC(=S)NC(C)C,inconclusive: -50.9%
27,Cc1ccc(NC(=O)C2CCC(CNc3c(N4CCC(C)CC4)c(=O)c3=O)CC2)cc1F (configuration not stated),inactive: 61.2%
